# Measured values from PMC12713065.
# Chains of the proteins cited; added tags and fusions are not shown. Lines headed by an entry give the natural chain unless they say otherwise; changes in a name come on top. Residues count along the entry.
# UniProt P53396: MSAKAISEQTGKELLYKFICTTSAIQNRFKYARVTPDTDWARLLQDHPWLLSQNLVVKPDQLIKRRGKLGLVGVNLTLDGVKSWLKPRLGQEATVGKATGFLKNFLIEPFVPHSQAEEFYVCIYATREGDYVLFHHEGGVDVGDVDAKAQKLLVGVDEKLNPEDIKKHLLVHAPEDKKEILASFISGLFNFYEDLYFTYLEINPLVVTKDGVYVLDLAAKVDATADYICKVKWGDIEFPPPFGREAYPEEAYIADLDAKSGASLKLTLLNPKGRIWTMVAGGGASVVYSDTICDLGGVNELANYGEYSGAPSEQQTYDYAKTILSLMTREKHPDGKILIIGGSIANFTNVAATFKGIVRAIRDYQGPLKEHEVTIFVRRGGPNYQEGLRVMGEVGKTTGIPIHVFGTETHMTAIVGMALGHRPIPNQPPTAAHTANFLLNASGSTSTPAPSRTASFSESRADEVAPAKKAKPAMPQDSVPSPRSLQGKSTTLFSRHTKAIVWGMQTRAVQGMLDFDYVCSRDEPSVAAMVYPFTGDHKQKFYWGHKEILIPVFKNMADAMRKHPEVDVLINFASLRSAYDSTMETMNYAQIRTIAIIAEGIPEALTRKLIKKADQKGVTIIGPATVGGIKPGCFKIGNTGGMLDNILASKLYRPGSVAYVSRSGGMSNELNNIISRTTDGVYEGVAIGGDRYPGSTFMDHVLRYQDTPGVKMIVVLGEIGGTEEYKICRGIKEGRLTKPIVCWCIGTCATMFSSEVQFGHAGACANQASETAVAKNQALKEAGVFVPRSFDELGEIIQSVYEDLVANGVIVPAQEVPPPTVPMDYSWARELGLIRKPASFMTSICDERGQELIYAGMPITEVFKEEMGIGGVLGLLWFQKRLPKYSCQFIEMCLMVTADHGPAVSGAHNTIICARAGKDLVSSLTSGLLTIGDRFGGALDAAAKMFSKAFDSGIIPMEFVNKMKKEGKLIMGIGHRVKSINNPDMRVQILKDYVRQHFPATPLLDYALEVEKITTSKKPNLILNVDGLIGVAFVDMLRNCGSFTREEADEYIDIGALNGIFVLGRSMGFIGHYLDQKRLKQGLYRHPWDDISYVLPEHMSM
# GST-ACLY deletion mutant D3 (CoA ligase domain, residues 631-850): residues 631-850 of P53396
# UniProt Q92769: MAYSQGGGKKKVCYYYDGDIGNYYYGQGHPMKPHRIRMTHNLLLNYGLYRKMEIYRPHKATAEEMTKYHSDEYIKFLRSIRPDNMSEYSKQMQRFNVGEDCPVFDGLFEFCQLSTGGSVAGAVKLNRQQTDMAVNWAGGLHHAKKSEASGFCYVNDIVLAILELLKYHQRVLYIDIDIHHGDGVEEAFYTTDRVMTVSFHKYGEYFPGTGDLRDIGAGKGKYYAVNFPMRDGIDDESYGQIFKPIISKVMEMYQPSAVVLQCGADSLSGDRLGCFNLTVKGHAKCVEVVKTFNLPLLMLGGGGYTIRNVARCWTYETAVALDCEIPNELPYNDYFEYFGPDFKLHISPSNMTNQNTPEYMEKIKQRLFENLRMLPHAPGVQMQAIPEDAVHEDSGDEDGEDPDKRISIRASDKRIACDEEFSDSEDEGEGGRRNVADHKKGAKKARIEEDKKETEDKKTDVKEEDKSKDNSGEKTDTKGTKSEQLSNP
# UniProt Q13547: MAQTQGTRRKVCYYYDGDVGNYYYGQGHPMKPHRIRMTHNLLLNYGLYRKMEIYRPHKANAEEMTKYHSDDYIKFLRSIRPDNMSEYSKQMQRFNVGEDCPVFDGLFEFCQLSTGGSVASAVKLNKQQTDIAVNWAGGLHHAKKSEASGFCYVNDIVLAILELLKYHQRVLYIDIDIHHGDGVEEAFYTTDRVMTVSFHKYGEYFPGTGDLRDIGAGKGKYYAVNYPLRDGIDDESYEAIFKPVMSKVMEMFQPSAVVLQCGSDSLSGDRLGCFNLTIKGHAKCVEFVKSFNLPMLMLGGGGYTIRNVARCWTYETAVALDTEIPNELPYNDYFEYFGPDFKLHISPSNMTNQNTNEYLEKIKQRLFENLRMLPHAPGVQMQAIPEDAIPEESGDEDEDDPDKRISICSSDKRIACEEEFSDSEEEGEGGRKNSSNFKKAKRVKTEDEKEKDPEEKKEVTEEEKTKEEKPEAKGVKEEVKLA
# These are yes or no findings as the source states them, for the method shown. In cells and extracts the contact can be indirect. Some entries that bind do so weakly or less than the wild type.
# Legend:
# [1] = molecular target: GST-ACLY deletion mutant D3 (CoA ligase domain, residues 631-850) (UniProt P53396); assay: pull-down; GST-tagged ACLY fragments on glutathione sepharose beads incubated with HA-HDAC2 overexpressed cell lysates at 4 °C for 3 h, washed five times, western blot; only the target purified
# [2] = molecular target: Flag-ACLY (ATP citrate lyase, wild type, transfected) (UniProt P53396); assay: co-IP; HCT8 cells transfected with Flag-tagged ACLY, IP and western blot for HDAC2 or HDAC1
# [3] = molecular target: endogenous ACLY (ATP citrate lyase) (human (endogenous in HCT8)) (UniProt P53396); assay: proximity ligation; Duolink in situ Red kit on fixed, permeabilized cells (HCT8, HCT8R, cells stably expressing ACLY-WT/K978R), confocal microscopy
# [4] = molecular target: endogenous ACLY (ATP citrate lyase) (human (endogenous in HCT8)) (UniProt P53396); assay: co-IP; endogenous proteins in HCT8 cells, protein A/G beads with the indicated antibody; with or without 5-FU (1 µM for 24 h)
# [5] = molecular target: ACLY-K978R stably expressed in HCT8/shACLY cells (UniProt P53396); assay: co-IP; HCT8/shACLY cells stably expressing ACLY-WT or K978R, western blot for endogenous RBM15
# [6] = molecular target: ACLY-K978R stably expressed in HCT8/shACLY cells (UniProt P53396); assay: proximity ligation; Duolink in situ Red kit on fixed, permeabilized cells (HCT8, HCT8R, cells stably expressing ACLY-WT/K978R), confocal microscopy
molecule,measurement,setting,value
HA-HDAC2 (from UniProt Q92769 1-488) (enzyme),binding,[1],binds
histone deacetylase 1 (HDAC1) in HCT8 cells (from UniProt Q13547 1-482) (enzyme),binding,[2],no binding
histone deacetylase 2 (HDAC2) in HCT8 / HCT8R cells (from UniProt Q92769 1-488) (enzyme),binding,[3],binds
same,binding,[4],binds
same,binding,[2],binds
"endogenous RNA-binding protein 15 (RBM15) (protein, UniProt Q96T37 1-977) MRTAGRDPVPRRSPRWRRAVPLCETSAGRRVTQLRGDDLRRPATMKGKERSPVKAKRSRGGEDSTSRGERSKKLGGSGGSNGSSSGKTDSGGGSRRSLHLDKSSSRGGSREYDTGGGSSSSRLHSYSSPSTKNSSGGGESRSSSRGGGGESRSSGAASSAPGGGDGAEYKTLKISELGSQLSDEAVEDGLFHEFKRFGDVSVKISHLSGSGSGDERVAFVNFRRPEDARAAKHARGRLVLYDRPLKIEAVYVSRRRSRSPLDKDTYPPSASVVGASVGGHRHPPGGGGGQRSLSPGGAALGYRDYRLQQLALGRLPPPPPPPLPRDLERERDYPFYERVRPAYSLEPRVGAGAGAAPFREVDEISPEDDQRANRTLFLGNLDITVTESDLRRAFDRFGVITEVDIKRPSRGQTSTYGFLKFENLDMSHRAKLAMSGKIIIRNPIKIGYGKATPTTRLWVGGLGPWVPLAALAREFDRFGTIRTIDYRKGDSWAYIQYESLDAAHAAWTHMRGFPLGGPDRRLRVDFADTEHRYQQQYLQPLPLTHYELVTDAFGHRAPDPLRGARDRTPPLLYRDRDRDLYPDSDWVPPPPPVRERSTRTAATSVPAYEPLDSLDRRRDGWSLDRDRGDRDLPSSRDQPRKRRLPEESGGRHLDRSPESDRPRKRHCAPSPDRSPELSSSRDRYNSDNDRSSRLLLERPSPIRDRRGSLEKSQGDKRDRKNSASAERDRKHRTTAPTEGKSPLKKEDRSDGSAPSTSTASSKLKSPSQKQDGGTAPVASASPKLCLAWQGMLLLKNSNFPSNMHLLQGDLQVASSLLVEGSTGGKVAQLKITQRLRLDQPKLDEVTRRIKVAGPNGYAILLAVPGSSDSRSSSSSAASDTATSTQRPLRNLVSYLKQKQAAGVISLPVGGNKDKENTGVLHAFPPCEFSQQFLDSPAKALAKSEEDYLVMIIVRGFGFQIGVRYENKKRENLALTLL",binding,[5],binds
same,binding,[6],binds
